Laboratory results: PubChem BioAssay AID624173 (National Center for Advancing Translational Sciences (NCATS), 2012)
Screen size: about 410,000 compounds; about 490 (0.12%) were called active. The inconclusive results got no clear call from the source; some entries with a clear call stand among them for comparison. The call rests on the fitted dose curve; in most records, active means well fitted inhibition curve with a large enough effect; inconclusive means small, poorly fitted or top-dose-only effect; inactive means flat fitted curve, though single readings scatter. A potency beside an inconclusive call is a rough fit, not a confirmed value.

molecular target: pyruvate kinase (Trypanosoma brucei) (UniProt Q57TT1); assay: qHTS of Trypanosoma Brucei Inhibitors; conditions: TbPYK enzyme, Kinase-Glo Plus ATP luminescence, 45 min; series mostly up to 76.8 µM; further: nearly all actives have a fitted effect of over 50% in size
Outline: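 TbPYK + substrate in 50 mM TEA pH 7.2, 100 mM KCl, 10 mM MgCl2, 0.05% BSA, 0.01% Tween-20; cpd pinned; ADP 130 uM final; 45 min RT; Kinase-Glo Plus 10 min; luminescence endpoint.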
Potency means the concentration at half of the fitted maximal effect; tags describe the fitted curve by direction and shape.

Row | SMILES | Potency
1 | C=CCn1c(-c2cnn(-c3ccccc3)c2N)n[nH]c1=S | inconclusive: 11.2 µM [inhibitor, partial curve]
2 | COc1ccc2ccccc2c1C1CC(=O)N2CN(C3CCCCC3)CSC2=C1C#N (stereo not drawn) | inconclusive: 2 µM [inhibitor, full curve, poor fit]
3 | FC(F)(F)c1ccc(Cl)c(-n2c(-c3ccco3)n[nH]c2=S)c1 | inconclusive: 7.94 µM [inhibitor, partial curve, poor fit]
4 | CCN1c2ccccc2N(C)C1(C)c1ccccc1 (stereo not drawn) | inconclusive: 15.8 µM [inhibitor, partial curve]
5 | Nc1c(C(=O)Nc2ccccc2)sc2ncc([N+](=O)[O-])cc12 | inactive
6 | C=CC[C@H](CC(=O)OC(C)(C)C)C(=O)OC[C@H]1CCCN1C(=O)[C@@H](CC=C)CC(=O)N(CCO)Cc1ccccc1 | inactive
7 | Cc1c2cnn(-c3ccccc3)c(=O)c2c(C)n1CC(=O)N1CCN(c2ccc(F)cc2)CC1 | inactive
8 | Cc1c(OC(=O)c2ccc([N+](=O)[O-])cc2)c2c(c[n+]1C)COC(C)(C)OC2 | inconclusive: 31.6 µM [inhibitor, partial curve]
9 | CC1(C)Oc2ccc(NC(=O)C3COc4ccccc4O3)cc2O1 (stereo not drawn) | inconclusive: 20 µM [inhibitor, single point]
10 | COCC(=O)n1nc(NCc2ccc(OC)cc2)nc1NCc1ccc(OC)cc1 | inconclusive: 44.7 µM [inhibitor, single point]
11 | O=C1C(=O)C(Cl)=C(Cl)C(Cl)=C1Cl | inconclusive: 10 µM [inhibitor, partial curve, poor fit]
12 | Cc1ccccc1-c1n[nH]c(=S)n1Cc1ccccc1 | inconclusive: 3.98 µM [inhibitor, partial curve, poor fit]
13 | CCn1c(C)nc2cc(C(=O)NNC(=O)c3ccc(C)cc3)ccc21 | inconclusive: 35.5 µM [inhibitor, partial curve, poor fit]
14 | S=c1nc[nH]c2c1[nH]c1ccc(Cl)cc12 | inactive
15 | CC(C)Oc1ccc(C(=O)Nc2ccc(N3CCN(C(=O)c4ccco4)CC3)cc2)cc1 | inactive
16 | Nc1nc(SCC(=O)Nc2cccnc2Cl)n[nH]1 | inconclusive: 50.1 µM [inhibitor, single point]
17 | O=C1CCCCCCC1Sc1ccccc1[N+](=O)[O-] (stereo not drawn) | inconclusive: 14.1 µM [inhibitor, partial curve]
18 | O=C(O)c1ccc(-n2[nH]c3c(c2=O)CCCC3)cc1 | inconclusive: 12.6 µM [inhibitor, partial curve]
19 | O=C(CCn1c(=O)[nH]c2ccsc2c1=O)N1CCN(Cc2ccc3c(c2)OCO3)CC1 | inactive
20 | Cc1nc(SCC(=O)c2ccc(F)cc2)n[nH]1 | inconclusive: 50.1 µM [inhibitor, single point]
21 | O=Cc1ccc(-c2nc3ccccc3s2)o1 | inactive
22 | COCCN(C(=O)COC(=O)Cc1cccc(OC)c1)c1c(N)n(CC(C)C)c(=O)[nH]c1=O | inactive
23 | CN1C(=O)/C(=C/c2cc(N=Nc3ccccc3)ccc2O)SC1=S | inconclusive: 39.8 µM [inhibitor, single point]

Row | SMILES | Potency
24 | S=c1[nH]nc(Cc2ccccc2)n1Cc1ccco1 | inconclusive: 31.6 µM [inhibitor, partial curve, poor fit]
25 | CCC(=O)Nc1ccc(Cl)c(NC(=O)c2ccc([N+](=O)[O-])cc2)c1 | inconclusive: 25.1 µM [inhibitor, partial curve]
26 | CCOc1ccc(N=C2NN=C(c3cc(C)n(CC4CCCO4)c3C)CS2)cc1 (stereo not drawn) | inconclusive: 20 µM [inhibitor, partial curve, poor fit]
27 | Cc1cc(C)c(Nc2cc(S(=O)(=O)O)c(N)c3c2C(=O)c2ccccc2C3=O)c(C)c1 | inconclusive: 22.4 µM [inhibitor, partial curve]
28 | Cc1cccc(NC(=O)c2ccc(OC3CSC3)cc2)c1 | inconclusive: 31.6 µM [inhibitor, partial curve]
29 | CCOC(=O)N1CCc2c(sc(NCc3cccs3)c2C(=O)Nc2cc(OC)ccc2OC)C1 | inconclusive: 3.98 µM [inhibitor, full curve, poor fit]
30 | CC1(C)N([O-])c2cc([N+](=O)[O-])ccc2[N+]1=O | inconclusive: 20 µM [inhibitor, partial curve]
31 | CC(=O)N(C1=C(Cl)C(=O)c2ccccc2C1=O)C1CCCCC1 | active: 0.891 µM
32 | CCc1n[nH]c(=S)n1/N=C/c1ccc(N(C)c2ccccc2)cc1 | inconclusive: 3.98 µM [inhibitor, partial curve]
33 | Cc1nn(CCc2n[nH]c(=S)n2-c2ccc(F)c(Cl)c2)c(C)c1[N+](=O)[O-] | active: 6.31 µM
34 | O=C(c1ccc(CSc2nc3ccncc3n2Cc2ccccc2F)cc1)N1CCCCCC1 | inactive
35 | Cc1cc(C)c2c(=O)n(CC(=O)Nc3ccc(Br)c(C)c3)sc2n1 | active: 8.91 µM
36 | CCCCCCc1ccc(N2C[C@H](CCCCC)[C@@H](CC(=O)NCc3ccccc3)C2=O)cc1 | inactive
37 | COc1ccc2[nH]c3c(=S)nc[nH]c3c2c1 | inconclusive: 5.01 µM [inhibitor, full curve, poor fit]
38 | CN(C)c1ccc(C(c2ccc(N(C)C)cc2)C(O)c2ccccc2)cc1 (stereo not drawn) | inconclusive: 11.2 µM [inhibitor, partial curve, poor fit]
39 | CNS(=O)(=O)c1ccc2nc(NC(=O)c3ccc(N4C(=O)CCC4=O)cc3)sc2c1 | inconclusive: 10 µM [inhibitor, partial curve]
40 | S=c1[nH]nc(COc2cccc3ccccc23)n1Cc1ccccc1 | inconclusive: 14.1 µM [inhibitor, partial curve, poor fit]
41 | Cc1ccccc1-n1c(Cc2cccs2)n[nH]c1=S | inconclusive: 5.62 µM [inhibitor, partial curve, poor fit]
42 | COCCN=c1scc(-c2cccs2)n1/N=C/c1ccc(O)c(O)c1O | inconclusive: 14.1 µM [inhibitor, partial curve, poor fit]
43 | Cc1ccc(/C(N)=N/OC(=O)c2ccco2)cc1 | inactive
44 | NC(=S)N=Nc1c(O)cc(O)c2[nH]c(=O)ccc12 | inconclusive: 22.4 µM [inhibitor, partial curve, poor fit]
45 | S=C(NCCCN1CCOCC1)NCCCN1CCOCC1 | inconclusive: 11.2 µM [inhibitor, partial curve]
46 | Cc1cccc(NS(=O)(=O)c2ccc(C)c(C(=O)OCC(=O)Nc3cc(C)on3)c2)c1 | inactive

Row | SMILES | Potency
47 | COc1cccc(Cc2n[nH]c(=S)n2Cc2ccco2)c1 | inconclusive: 12.6 µM [inhibitor, partial curve, poor fit]
48 | CCn1c(C(C)NC(=O)c2ccc(Cl)cc2)n[nH]c1=S (stereo not drawn) | inconclusive: 28.2 µM [inhibitor, partial curve, poor fit]
49 | Cc1cc(C)c(NC(=O)/C=C\C(=O)O)c([N+](=O)[O-])c1 | inactive
50 | Cc1ccc(NC(=O)CCSc2nnc(C)o2)cc1 | inactive
51 | CCn1c(=O)c2sccc2n2c(CCCC(=O)Nc3ccc(Oc4ccccc4)cc3)nnc12 | inactive
52 | Cc1ccc(-n2c(=O)c3c4c(sc3n3c(=S)[nH]nc23)CCC4)cc1 | inconclusive: 6.31 µM [inhibitor, partial curve, poor fit]
53 | NC(CCc1ccccc1)c1csc(Nc2ccc(C(=O)c3ccccc3)cc2)n1 (stereo not drawn) | inactive
54 | Cc1cc(C(=O)Nc2cccc(C(=O)O)c2)oc1C | inconclusive: 35.5 µM [inhibitor, single point]
55 | COc1cccc(/C=N/Nc2nccnc2Cl)c1O | inconclusive: 35.5 µM [inhibitor, single point]
56 | CC(C)C(c1nnnn1Cc1ccc(F)cc1)N1CCN(c2ccc(O)cc2)CC1 (stereo not drawn) | inconclusive: 14.1 µM [inhibitor, partial curve]
57 | O=C(NS(=O)(=O)N1CCOCC1)C1=C(N2CCCC2)COC1=O | inactive
58 | O=C(NC12CC3CC(CC(C3)C1)C2)N1CCC(O)CC1 | inactive
59 | Cn1c(CNc2cccc(C(F)(F)F)c2)n[nH]c1=S | inconclusive: 3.98 µM [inhibitor, full curve, poor fit]
60 | Clc1cccc(Cl)c1C1Nc2cccc3cccc(c23)N1 | inactive
61 | Cn1c(CSCc2ccccc2Cl)n[nH]c1=S | inconclusive: 17.8 µM [inhibitor, partial curve]
62 | CC(C)NC(=O)N(C)C[C@H]1OCCCC[C@@H](C)Oc2ccc(N(C)C)cc2C(=O)N([C@H](C)CO)C[C@@H]1C | inconclusive: 1.26 µM [inhibitor, full curve, poor fit]
63 | CCOC(=O)C1=C(C)NC(SCC(=O)OC)=C(C#N)C1c1ccc(C(=O)OC)cc1 (stereo not drawn) | inconclusive: 2.24 µM [inhibitor, full curve, poor fit]
64 | CC(C)c1ccc(NC(=O)[C@H]2O[C@@H]3OC(C)(C)O[C@@H]3[C@H]3OC(C)(C)O[C@H]32)cc1 | inconclusive: 15.8 µM [inhibitor, partial curve]
65 | COCC(=O)n1nc(-c2ccc(Cl)cc2)nc1NCc1ccc(F)cc1 | inactive
66 | CC(C)N(c1ccccc1)c1ccc(NC(=O)[C@@H]2O[C@H](CO)[C@@H](O)[C@H]2O)cc1 | inactive
67 | CCOc1ccccc1-n1c(SCC(N)=O)nnc1-c1ccccc1 | inconclusive: 20 µM [inhibitor, partial curve, poor fit]
68 | Cc1ccc(-c2n[nH]c(=S)n2/N=C/c2c(C)[nH]n(-c3ccccc3)c2=O)cc1 | inconclusive: 14.1 µM [inhibitor, partial curve]
